The supplement of paper PMC4967469
IC50 is the fitted dose that halves viability relative to control wells, and lower means more sensitive; a fit beyond the top or the lowest dose is shown as a bound at that dose. AUC, from the same fit, is the share of area under the viability curve across the 256-fold dose range; the more sensitive the line, the further below 1. The top dose, if marked as inferred, was calculated from the reported fits.

What was measured:
Experiment in all cases: Viability of human cancer cell lines after 72 h of drug (GDSC screen)
QL-XII-47 = compound: C=CC(=O)N1CCc2ccc(-n3c(=O)ccc4cnc5ccc(-c6cnn(C)c6)cc5c43)cc21 [QL-XII-47]; conditions: top dose 10.24 µM; top dose inferred
Procedure: (§1)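 Human cancer cell lines in 384-well plates, medium with 10% serum, drug for 72 h over a 256-fold dose range (nine 2-fold or five 4-fold steps up to the top dose). Adherent lines were fixed and stained with the nucleic acid dye Syto60, suspension lines read with resazurin; signal relative to control wells, capped at 0 and 100%. One two-parameter sigmoid per drug and line, fitted in a mixed model over all curves with the slope shared within a line.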

KIN001-266 = compound: CCN1CCC(n2cc(CNc3cc(Cl)c4ncc(C#N)c(Nc5ccc(F)c(Cl)c5)c4c3)nn2)CC1 [KIN001-266]; conditions: top dose 20 µM; top dose inferred
Procedure: as §1

CCT007093 = compound: O=C1/C(=C/c2cccs2)CC/C1=C\c1cccs1 [CCT007093]; conditions: top dose 6.6 µM; top dose inferred
Procedure: as §1

BAY 61-3606 = compound: COc1ccc(-c2cc3nccn3c(Nc3ncccc3C(N)=O)n2)cc1OC [BAY 61-3606]; conditions: top dose 8 µM; top dose inferred
Procedure: as §1

Cell Line | AUC (QL-XII-47) | IC50 (QL-XII-47) [µM] | AUC (KIN001-266) | IC50 (KIN001-266) [µM] | AUC (CCT007093) | IC50 (CCT007093) [µM] | AUC (BAY 61-3606) | IC50 (BAY 61-3606) [µM]
OV-17R (ovary, adherent) | 0.7 | 2.97 | 0.699 | 5.75 | 0.98 | > 6.6 | – | –
SNU-475 (liver, adherent) | 0.918 | > 10.2 | 0.859 | 13.6 | – | – | 0.949 | > 8
Hs-445 (Hodgkin lymphoma, suspension) | 0.393 | 0.333 | 0.862 | 15 | – | – | 0.588 | 0.853
FLO-1 (oesophagus, adherent) | 0.688 | 2.74 | 0.799 | 15.1 | 0.975 | > 6.6 | – | –
COR-L321 (lung, suspension) | 0.475 | 0.546 | 0.858 | 16.4 | 0.984 | > 6.6 | – | –
UACC-812 (breast, adherent) | 0.813 | 5.3 | 0.942 | > 20 | – | – | 0.991 | > 8
NB13 (neuroblastoma, adherent) | 0.692 | 2.06 | 0.758 | 6.23 | – | – | 0.794 | 3.21
Hs746T (stomach, adherent) | 0.572 | 1.08 | 0.922 | > 20 | 0.98 | > 6.6 | – | –
NK-92MI (lymphoid neoplasm, suspension) | 0.427 | 0.41 | – | – | – | – | 0.705 | 1.8
ES4 (Ewing sarcoma, adherent) | 0.67 | 2.05 | 0.724 | 5.99 | – | – | 0.64 | 1.29
D-423MG (glioma, adherent) | 0.676 | 2.23 | 0.834 | 17.3 | 0.96 | > 6.6 | – | –
Caov-3 (ovary, adherent) | 0.879 | 8.3 | 0.941 | > 20 | – | – | 0.967 | > 8
DOHH-2 (B-cell lymphoma, suspension) | – | – | – | – | – | – | 0.736 | 2.31
TE-4 (oesophagus, adherent) | 0.983 | > 10.2 | 0.98 | > 20 | 0.937 | > 6.6 | – | –
CAL-62 (thyroid, adherent) | 0.725 | 2.68 | 0.918 | > 20 | – | – | 0.921 | > 8
Hey (ovary, adherent) | 0.724 | 2.65 | 0.875 | 17.7 | 0.988 | > 6.6 | – | –
OVK-18 (ovary, adherent) | 0.74 | 3.4 | 0.895 | > 20 | 0.961 | > 6.6 | – | –
H4 (glioma, adherent) | 0.824 | 5.98 | 0.882 | > 20 | 0.971 | > 6.6 | – | –
RCC-AB (kidney, adherent) | 0.572 | 1.07 | 0.838 | 19.8 | 0.981 | > 6.6 | – | –
